# Measured values published in the supplement of paper PMC11369174, “Proteome-scale characterisation of motif-based interactome rewiring by disease mutations” (Molecular Systems Biology, 2024).
# The list shows a part of the results. Read counts after selection give these values, which scatter widely.
# T1: EPS15_EH__P42566_121_215
# T1 chain: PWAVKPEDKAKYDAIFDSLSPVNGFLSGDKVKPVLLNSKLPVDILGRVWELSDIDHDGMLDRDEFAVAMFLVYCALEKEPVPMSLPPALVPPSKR
# Legend:
# Assay in all cases: mean normalised NGS count of phage-displayed peptide after selection on bait (% of reads); baits are purified protein domains named by gene / domain / UniProt id / residues; peptides come from disordered regions of human proteins; higher = stronger enrichment / binding
# [1] = target: T1, EPS15_EH__P42566_121_215
# [2] = target: EPS8_SH3_1_Q12929_534_598 (clone: EPS8L1_SH3_1_Q12929_534_598)
# [3] = target: NCK1_SH3_1_P16333_5_60
# [4] = target: EZR_FERM_1_P15311_2_295; details: replicate selections in which the peptide was seen: 2
# EZR_FERM_1_P15311_2_295, sequence (chain, as listed by the source): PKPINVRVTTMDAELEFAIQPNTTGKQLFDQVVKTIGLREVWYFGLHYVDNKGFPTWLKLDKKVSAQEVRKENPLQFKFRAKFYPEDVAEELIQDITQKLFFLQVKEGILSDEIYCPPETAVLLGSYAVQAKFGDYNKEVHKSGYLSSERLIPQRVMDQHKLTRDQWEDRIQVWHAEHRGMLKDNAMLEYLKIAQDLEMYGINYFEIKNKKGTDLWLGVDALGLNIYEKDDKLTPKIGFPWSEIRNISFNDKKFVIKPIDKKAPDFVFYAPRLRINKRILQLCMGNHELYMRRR
# [5] = replicate selections in which the peptide was seen: 4
# [6] = replicate selections in which the peptide was seen: 5
# [7] = replicate selections in which the peptide was seen: 6
# [8] = replicate selections in which the peptide was seen: 3
binder,measurement,setting,value
QKSSSHERRAFLQAIL [SMARCA2 1206-1221 wt],mean normalised NGS count,[1]; [5],0.0549
QKSSSHERRAFLQAIL [SMARCA4 1206-1221 wt],mean normalised NGS count,[1]; [5],0.0549
DVYARFGEEHSANPFH [ABCA4 1856-1871 wt],mean normalised NGS count,[1]; [5],1.19
NARFGEEHSANPFHWD [ABCA4 1858-1873 mut P78363.Y1858N],mean normalised NGS count,[1]; [5],0.0162
DPEPTNPFQPIASVII [ARL13B 250-265 wt],mean normalised NGS count,[1]; [5],0.0801
NKPDSSPLYIQNPFET [MTPAP 467-482 wt],mean normalised NGS count,[1]; [5],0.0163
SSPLYIQNPFETSLNI [MTPAP 471-486 wt],mean normalised NGS count,[1]; [5],0.0311
QKSSSHEWRAFLQAIL [SMARCA2 1206-1221 mut P51531.R1213W],mean normalised NGS count,[1]; [6],37.8
QKSSSHEWRAFLQAIL [SMARCA4 1206-1221 mut P51531.R1213W],mean normalised NGS count,[1]; [6],37.8
VAANKSQSWLAELLRW [SATB2 508-523 mut Q9UPW6.G515S],mean normalised NGS count,[1]; [6],28.1
TSWLMSLENPLSPFSL [TSC2 1206-1221 mut P49815.S1221L],mean normalised NGS count,[1]; [7],0.62
TSWLMSLENPLSPFSS [TSC2 1206-1221 wt],mean normalised NGS count,[1]; [7],0.113
DIFVQNLVPDWWGPDG [SLC12A3 323-338 mut P55017.R334W],mean normalised NGS count,[1]; [7],0.404
EAWLLAEIGAVTLVSA [TSEN34 56-71 mut Q9BSV6.R58W],mean normalised NGS count,[1]; [7],1.38
DFFLQSLYSLMGLDAG [SLC26A1 552-567 mut Q9H2B4.T562M],mean normalised NGS count,[1]; [7],2.42
NPFIATSGPGHLSHMP [CHD7 224-239 mut Q9P2D1.V238M],mean normalised NGS count,[1]; [7],0.316
NPFIATSGPGHLSHVP [CHD7 224-239 wt],mean normalised NGS count,[1]; [7],4.37
LNVAQEQFGGNPFASV [UBQLN2 280-295 mut Q9UHD9.A282V],mean normalised NGS count,[1]; [7],5.54
DAYLDSLFDPVLSYGD [MYO15A 2388-2403 wt],mean normalised NGS count,[1]; [7],0.694
DAYLDSLFDPVLSYGY [MYO15A 2388-2403 mut Q9UKN7.D2403Y],mean normalised NGS count,[1]; [7],1.16
NALPIQVDYDAYDAEV [DEPDC5 451-466 mut O75140.Q465E],mean normalised NGS count,[2]; [8],0.0151
NVLPIQVDYDAYDAQV [DEPDC5 451-466 mut O75140.A452V],mean normalised NGS count,[2]; [8],0.824
KPATDPGLFPMIPDYP [EGR2 212-227 wt],mean normalised NGS count,[2]; [8],0.102
KPAMDPGLFPMIPDYP [EGR2 212-227 mut P11161.T215M],mean normalised NGS count,[2]; [6],1.15
MGVPPLPPPAPDYVLP [NR5A1 126-141 mut Q13285.P131L],mean normalised NGS count,[2]; [6],1.07
same,mean normalised NGS count,[3]; [6],0.15
PLPPPAPDYVLPPSLH [NR5A1 130-145 mut Q13285.P131L],mean normalised NGS count,[2]; [7],52.7
same,mean normalised NGS count,[3]; [7],1.66
PPPPPAPDYVLPPSLH [NR5A1 130-145 wt],mean normalised NGS count,[2]; [7],10.4
same,mean normalised NGS count,[3]; [7],31.3
YAEYAISQPLEGAGAT [ERCC1 60-75 wt],mean normalised NGS count,[4],0.00817
